# Measured values reported in PubChem BioAssay AID504832 (National Center for Advancing Translational Sciences (NCATS), 2011).
# Out of some 310,000 compounds screened, about 18,000 (5.8%) were called active. The inconclusive results got no clear call from the source; some entries with a clear call stand among them for comparison. The call rests on the fitted dose curve; in most records, active means well fitted inhibition curve with a large enough effect; inconclusive means small, poorly fitted or top-dose-only effect, or another doubt; inactive means no such curve, though single readings can be large or run the other way. No potency is given beside an inconclusive call; the fits are too rough. Non-standard residues stand in square brackets, D forms with d. Residues, ends and D or L forms follow the SMILES beside them. ξ: configuration not given here. *: point of attachment. ξF = NC(Cc1ccccc1)C(=O)O; Cbz = O=C(OCc1ccccc1)*
# Assay: Primary qHTS for delayed death inhibitors of the malarial parasite plastid, 48 hour incubation
# Details: P. falciparum luciferase growth in erythrocytes; series mostly up to 28.7 µM
# Outline: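 Cell-based growth assay: transgenic P. falciparum expressing firefly luciferase, cultured in red cells within RPMI 1640 containing 0.5% w/v Albumax, 24 mM bicarbonate and gentamycin. A drop in luciferase activity indicates inhibition.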
# On the % scale 0 is the no-effect control and ±100 the full control effect; potency means the concentration at half of the fitted maximal effect; tags describe the fitted curve by direction and shape.
Compound,Potency,"activity change, negative = inhibition"
Cc1ccc(S(=O)(=O)N(CC(=O)NCc2cccs2)c2ccccc2)cc1,"inconclusive [inhibitor, partial curve]",
O=C(CSc1nc(=O)n(CCCN2CCOCC2)c2c1CCCC2)Nc1ccccc1Cl,"inconclusive [inhibitor, partial curve, poor fit]",
CC1(C)CCc2cc(-c3ccn(S(=O)(=O)c4ccccc4Cl)n3)ccc2O1,"inconclusive [inhibitor, partial curve, poor fit]",
N#C/C(=C\Nc1ccc2c(c1)OCCO2)c1nc2ccccc2[nH]1,"inconclusive [inhibitor, single point]",
Cc1cccc(OCC(=O)NNC(=O)c2ccccc2OCc2c(C)noc2C)c1,"inconclusive [inhibitor, single point]",
CN(C)c1ccc(C(=O)Nc2nnc(-c3ccc(Cl)cc3)o2)cc1,"inconclusive [inhibitor, single point]",
Cc1c(O)c(CN(C)C)cc2c1oc(=O)c1ccccc12,active: 4.15 µM,
COc1ccc(C)cc1NC(=O)C(OC(=O)CNC(=O)c1ccc(Oc2ccccc2)cc1)c1ccccc1 (stereo not given),inactive,
C=CCc1ccccc1OCC(O)CN1CCN(c2ccccc2OC)CC1 (stereo not given),"inconclusive [inhibitor, single point]",
Cc1ccc2c(c1)c1c(n2CC(O)CN2CCCCCC2)CCCC1 (stereo not given),active: 8.28 µM,
COc1ccc(NC(=O)N2CCNC(=O)C2CC(=O)Nc2ccc(F)cc2)cc1 (stereo not given),inactive,
CN(C)c1cccc(C(=O)NCc2ccc3c(c2)OCO3)c1,"inconclusive [inhibitor, partial curve, poor fit]",
COc1ccc(-c2nnn(CC(=O)N(CCCN3CCOCC3)C(C(=O)NC3CCCC3)c3ccc(C)o3)n2)cc1 (stereo not given),"inconclusive [inhibitor, single point]",
COc1ccc(S(=O)(=O)C(C#N)c2nc3ccccc3nc2N2CCCC(C)C2)cc1 (stereo not given),"inconclusive [inhibitor, single point]",
OC1CCN(C(=S)Nc2ccc(Oc3ccccc3)cc2)CC1,inactive,
CC(C)CN(CC(C)C)c1ccc(/C=N/n2cnnc2)cc1[N+](=O)[O-],"inconclusive [inhibitor, single point]",
O=c1cc(N2CCCCC2)c(-c2ccccc2)nn1Cc1cccc(F)c1,"inconclusive [inhibitor, partial curve, poor fit]",
Cc1c(NC(=O)c2cccc(NC(=O)COc3ccc(C#N)cc3)c2)c(=O)n(-c2ccccc2)n1C,inactive,
c1ccc(CCNc2c3c(nc4ncnn24)CCC3)cc1,active: 1.47 µM,
CC(C)CC(=O)N(c1nnc(-c2cccnc2)s1)C1CCCC1,"inconclusive [inhibitor, single point]",
Cc1ccc(S(=O)(=O)N2CCC(C(=O)N3CCC[C@H]3C(=O)NCc3ccco3)CC2)cc1,active: 11.7 µM,
CN1C(=O)N(C)C(=O)C2(Cc3c(nc4ccccn4c3=O)N3CCC(Cc4ccccc4)CC32)C1=O (stereo not given),"inconclusive [inhibitor, single point]",
S=C(Nc1ccccc1Cl)N1CCN(Cc2ccccc2)CC1,"inconclusive [inhibitor, single point]",
COc1ccc(CN2C(=O)C(Cc3ccccc3)Nc3ncnc(N4CCc5ccccc5C4)c32)cc1 (stereo not given),active: 7.38 µM,

Compound,Potency,"activity change, negative = inhibition"
COc1ccc2c(c1)NC(C)(C)C=C2C,"inconclusive [inhibitor, single point]",
COc1ccc([C@H]2CC(=O)C=C(c3cccc(NC(C)=O)c3)C2)cc1,"inconclusive [inhibitor, full curve, poor fit]",
Cc1cccc(NC(=O)CN(C)C(C)C(=O)Nc2ccc(S(=O)(=O)N3CCCC3)cc2)c1C (stereo not given),active: 13.1 µM,
CN(C)/C=N/n1cnc2ccccc2c1=O,inactive,
Cc1ccc(C2(C)NC(=O)N(CC(=O)c3ccc4c(c3)OCCO4)C2=O)cc1 (stereo not given),"inconclusive [inhibitor, single point]",
COc1ccc(NC(=O)/C(C#N)=C/c2ccc(OCCN3CCOCC3)c(OC)c2)c(OC)c1,inactive,
CCOc1cc(-c2nc(-c3ccc(OC)cc3)no2)cc(OCC)c1OCC,inactive,
O=C(NCCc1cnn(-c2ccccc2)c1)c1cc(COc2c(F)cccc2F)on1,"inconclusive [inhibitor, single point]",
O=C1CCCN2N=C(SCC(=O)N3N=C(c4ccc(Br)cc4)CC3c3ccc(F)cc3)SC2=N1 (stereo not given),"inconclusive [inhibitor, partial curve, poor fit]",
CC1C(=O)Nc2ccccc2N1C(=O)c1ccccc1 (stereo not given),inactive,
Cc1cc(OC(=O)c2cccs2)c2c3c(c(=O)oc2c1)CCCC3,active: 5.86 µM,
O=C(NC1CCCCC1)C(c1cccs1)N(C(=O)c1ccccn1)c1ccccc1 (stereo not given),inactive,
Cc1ccc(C(=O)N[C@H](C(=O)NC2CCCCCCC2)C(C)C)cc1,"inconclusive [inhibitor, single point]",
COc1cc([N+](=O)[O-])ccc1NC(=O)CSc1nc2ccccc2n1-c1ccccc1,active: 8.28 µM,
COc1cc(C(=O)O[C@H]2CC(C)=CC[C@@]3(C)CC[C@@](O)(C(C)C)[C@H]23)ccc1O,"inconclusive [inhibitor, single point]",
N#Cc1ccccc1S(=O)(=O)N1CCN(CC(=O)Nc2ccccc2C(=O)NC2CC2)CC1,"inconclusive [inhibitor, partial curve]",
C/C(=N/NC(=O)c1cc(C)[nH]n1)c1ccco1,inactive,
CC(C)[C@H](NC(=O)OCc1ccccc1)C(=O)NC(C=O)Cc1ccccc1 (stereo partly drawn) (Cbz-Val-[ξF]-aldehyde),active: 1.31 µM,
CCn1c(CC(=O)Nc2ccccc2Cl)nnc1SCC(=O)NC1CCCC1,inactive,
CC(=O)c1ccc(S(=O)(=O)N2CCN(C(=O)CSc3ccc(F)cc3)CC2)cc1,"inconclusive [inhibitor, partial curve, poor fit]",
CCn1c2ccccc2c2nnc(SCCCn3c(=O)[nH]c4ccccc43)nc21,active: 7.38 µM,
CCn1c(SCC(=O)Nc2ccc3c(c2)OCCO3)nnc1-c1cccnc1,inactive,
Cc1cccn2c(=O)c3cc(C(=O)NCc4ccco4)c(=N)n(CCOCCO)c3nc12,active: 1.47 µM,
COc1ccc(NC(=O)CCNS(=O)(=O)c2ccc3c(c2)c(=O)n(C)c(=O)n3C)cc1,inactive,

Compound,Potency,"activity change, negative = inhibition"
CCOc1cc(/C=C(\C#N)C(=O)NCC2CCCO2)ccc1OCC(N)=O (stereo not given),inactive,
CCCn1c(N)c(N(CCOC)C(=O)c2cc3c(s2)CCC(CC)C3)c(=O)[nH]c1=O (stereo not given),"inconclusive [inhibitor, single point]",
CCOC(=O)C(NC(=O)CC)(N1CCc2ccccc2C1)C(F)(F)F (stereo not given),inactive,
NCCc1nnc(SCc2ccccc2Cl)o1,inactive,
CC1Cc2ccccc2N1C(=O)COC(=O)c1ccc(Cl)nc1 (stereo not given),,inactive: 40% [at 5.75 µM]
Cc1ccc(OCc2ccc(C(=O)Nc3c(C)nn(Cc4c(F)c(F)c(F)c(F)c4F)c3C)o2)c([N+](=O)[O-])c1,"inconclusive [inhibitor, single point]",
C[C@H](NC(=O)c1nc[nH]c1C(=O)NCCCCCNC(=O)OC(C)(C)C)C(=O)OC(C)(C)C,"inconclusive [inhibitor, partial curve, poor fit]",
COCc1ccc(C(=O)NC2CCCN(Cc3ccccc3F)C2)o1 (stereo not given),inactive,
O=C(O)c1ccc(N/N=C/c2cn(Cc3ccc(F)cc3)c3ccccc23)cc1,inactive,
COCCCNC(=O)C1CCN(S(=O)(=O)c2c(C)noc2/C=C\c2ccc(OC)cc2)CC1,"inconclusive [inhibitor, single point]",
COc1ccc(Nc2nc3c(C)cccc3cc2C#N)cc1,"inconclusive [inhibitor, partial curve, poor fit]",
COc1ccccc1C(=O)NN(C)C1=NS(=O)(=O)c2ccccc21,inactive,
OC(COCc1cccs1)CN1CCCCCC1 (stereo not given),active: 13.1 µM,
COc1cccc(NC(=O)/C=C/c2ccc(S(=O)(=O)N3CCOCC3)cc2)c1,"inconclusive [inhibitor, single point]",
COc1cc(NC(=O)c2cccs2)c(C(=O)OCC(=O)NC(C)c2ccccc2)cc1OC (stereo not given),"inconclusive [inhibitor, single point]",
CCOC(=O)N1CCc2c(sc(NC(=O)CN3CCN(C)CC3)c2C(=O)Nc2ccccc2)C1,"inconclusive [inhibitor, single point]",
COc1ccccc1-c1nc(C(=O)NCC2CCCO2)cc2c1[nH]c1ccccc12 (stereo not given),active: 9.28 µM,
CCNc1nc(NCC)n2c(SCC(=O)N(CC)C3CCCCC3)nnc2n1,"inconclusive [inhibitor, single point]",
O=C(c1ccc(S(=O)(=O)N2CCCC2)cc1)N1CCN(c2cccc(Cl)c2)CC1,"inconclusive [inhibitor, partial curve]",
O=S(=O)(c1ccc2ccccc2c1)N1CCN(C(=S)Nc2ccc(F)cc2)CC1,"inconclusive [inhibitor, partial curve, poor fit]",
COCCN(Cc1cc2cc(C)ccc2n2nnnc12)C(=S)Nc1cccc(C)c1,active: 5.22 µM,
O=C(Nc1ccccc1)Nc1cnccn1,inactive,
